Experiment [1] deals with Flag-tagged vIRF-1 deletion variant Δ3 (deleted of residues 48-72) (human herpesvirus 8 (HHV-8)) (UniProt F5HF68). Kind of experiment: co-IP.
The target of experiment [2] is Flag-tagged vIRF-1 deletion variant Δ2 (deleted of residues 23-47) (human herpesvirus 8 (HHV-8)) (UniProt F5HF68). In words: co-IP.
Experiment [3] concerns the target StrepII+Flag (SF)-tagged vIRF-1 (HHV-8 viral interferon regulatory factor 1), wild type (human herpesvirus 8 (HHV-8)) (UniProt F5HF68). In words: co-IP.
Experiment [4] addresses GST-tagged vIRF-1, bacterially derived (human herpesvirus 8 (HHV-8)) (UniProt F5HF68). Kind of experiment: pull-down; both purified.
Experiment [5] deals with TYK2 of the preliminary coprecipitation-based screening (UniProt P29597). In words: co-IP.
The target of a further experiment is CBD-tagged TYK2 (UniProt P29597). Kind of experiment: co-IP.
The target of experiment [6] is CBD (chitin-binding domain)-tagged STAT3 (UniProt P40763). In words: co-IP.
The target in a further experiment is USP7 (UniProt Q93009). Kind of experiment: co-IP.
The target in experiment [7] is Flag-tagged vIRF-1 deletion variant Δ9 (Δ198–222) (human herpesvirus 8 (HHV-8)) (UniProt F5HF68). In words: co-IP.
Experiment [8] addresses virus-expressed vIRF-1 of TRExBCBL1-RTA (iBCBL-1) PEL cells (human herpesvirus 8 (HHV-8)) (UniProt F5HF68). Kind of experiment: co-IP.
For experiment [9], the target named is S-tagged TYK2, vector-expressed (UniProt P29597). Kind of experiment: co-IP.
Experiment [10] deals with CBD (chitin-binding domain)-tagged STAT3 (UniProt P40763). In words: co-IP. The source holds these as a separate data set.

Protein sequences, listed by entry. Tags and fused reporters are not part of them. Residues count along the entry.
UniProt P29597: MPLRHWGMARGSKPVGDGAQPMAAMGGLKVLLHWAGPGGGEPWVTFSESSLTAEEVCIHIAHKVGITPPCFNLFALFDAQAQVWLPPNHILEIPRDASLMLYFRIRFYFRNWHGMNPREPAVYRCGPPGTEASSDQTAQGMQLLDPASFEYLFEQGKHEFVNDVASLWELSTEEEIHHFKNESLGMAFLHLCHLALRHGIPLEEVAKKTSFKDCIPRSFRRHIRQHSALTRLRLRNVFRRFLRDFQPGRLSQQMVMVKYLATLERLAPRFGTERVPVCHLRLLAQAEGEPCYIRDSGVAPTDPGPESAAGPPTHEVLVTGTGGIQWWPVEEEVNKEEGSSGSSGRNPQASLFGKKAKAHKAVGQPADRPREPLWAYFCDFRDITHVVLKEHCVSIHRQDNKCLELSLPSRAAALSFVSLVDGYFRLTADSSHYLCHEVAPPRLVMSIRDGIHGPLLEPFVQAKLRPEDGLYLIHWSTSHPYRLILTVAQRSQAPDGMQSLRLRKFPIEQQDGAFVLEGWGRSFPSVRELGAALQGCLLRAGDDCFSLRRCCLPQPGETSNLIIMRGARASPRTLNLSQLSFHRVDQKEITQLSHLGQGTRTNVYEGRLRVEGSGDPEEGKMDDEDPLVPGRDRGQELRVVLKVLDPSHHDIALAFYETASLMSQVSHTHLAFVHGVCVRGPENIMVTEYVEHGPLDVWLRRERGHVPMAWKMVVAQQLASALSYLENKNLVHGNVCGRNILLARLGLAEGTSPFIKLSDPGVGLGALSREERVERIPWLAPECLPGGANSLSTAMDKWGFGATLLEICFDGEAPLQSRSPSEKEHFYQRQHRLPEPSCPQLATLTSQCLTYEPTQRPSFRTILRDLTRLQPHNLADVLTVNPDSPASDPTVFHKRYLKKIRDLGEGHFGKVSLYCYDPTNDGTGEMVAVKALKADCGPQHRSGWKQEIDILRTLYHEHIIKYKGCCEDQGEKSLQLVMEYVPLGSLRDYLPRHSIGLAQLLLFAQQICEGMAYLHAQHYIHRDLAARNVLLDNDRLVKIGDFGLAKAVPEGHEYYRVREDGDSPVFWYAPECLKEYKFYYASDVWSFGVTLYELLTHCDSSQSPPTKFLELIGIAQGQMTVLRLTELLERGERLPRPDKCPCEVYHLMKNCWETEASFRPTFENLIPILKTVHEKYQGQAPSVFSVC
UniProt P40763: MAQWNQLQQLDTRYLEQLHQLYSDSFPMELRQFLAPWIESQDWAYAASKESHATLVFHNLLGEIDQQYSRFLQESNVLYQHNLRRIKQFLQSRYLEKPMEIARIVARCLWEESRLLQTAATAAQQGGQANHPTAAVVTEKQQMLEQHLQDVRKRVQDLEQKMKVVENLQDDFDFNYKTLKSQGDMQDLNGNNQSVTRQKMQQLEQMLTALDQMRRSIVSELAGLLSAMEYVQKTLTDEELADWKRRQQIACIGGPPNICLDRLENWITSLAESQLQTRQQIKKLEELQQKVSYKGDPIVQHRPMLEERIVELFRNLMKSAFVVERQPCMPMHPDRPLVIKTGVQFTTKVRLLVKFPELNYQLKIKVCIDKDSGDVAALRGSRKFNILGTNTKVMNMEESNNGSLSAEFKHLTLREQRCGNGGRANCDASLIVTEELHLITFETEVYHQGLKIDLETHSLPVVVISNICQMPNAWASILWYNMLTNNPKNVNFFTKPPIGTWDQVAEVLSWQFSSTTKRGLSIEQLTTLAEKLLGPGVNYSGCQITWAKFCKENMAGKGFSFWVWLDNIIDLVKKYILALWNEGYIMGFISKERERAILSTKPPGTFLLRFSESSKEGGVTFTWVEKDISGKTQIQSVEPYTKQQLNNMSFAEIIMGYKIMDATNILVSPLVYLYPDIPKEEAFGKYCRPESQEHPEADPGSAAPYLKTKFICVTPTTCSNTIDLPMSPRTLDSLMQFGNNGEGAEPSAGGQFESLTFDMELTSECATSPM
UniProt Q93009: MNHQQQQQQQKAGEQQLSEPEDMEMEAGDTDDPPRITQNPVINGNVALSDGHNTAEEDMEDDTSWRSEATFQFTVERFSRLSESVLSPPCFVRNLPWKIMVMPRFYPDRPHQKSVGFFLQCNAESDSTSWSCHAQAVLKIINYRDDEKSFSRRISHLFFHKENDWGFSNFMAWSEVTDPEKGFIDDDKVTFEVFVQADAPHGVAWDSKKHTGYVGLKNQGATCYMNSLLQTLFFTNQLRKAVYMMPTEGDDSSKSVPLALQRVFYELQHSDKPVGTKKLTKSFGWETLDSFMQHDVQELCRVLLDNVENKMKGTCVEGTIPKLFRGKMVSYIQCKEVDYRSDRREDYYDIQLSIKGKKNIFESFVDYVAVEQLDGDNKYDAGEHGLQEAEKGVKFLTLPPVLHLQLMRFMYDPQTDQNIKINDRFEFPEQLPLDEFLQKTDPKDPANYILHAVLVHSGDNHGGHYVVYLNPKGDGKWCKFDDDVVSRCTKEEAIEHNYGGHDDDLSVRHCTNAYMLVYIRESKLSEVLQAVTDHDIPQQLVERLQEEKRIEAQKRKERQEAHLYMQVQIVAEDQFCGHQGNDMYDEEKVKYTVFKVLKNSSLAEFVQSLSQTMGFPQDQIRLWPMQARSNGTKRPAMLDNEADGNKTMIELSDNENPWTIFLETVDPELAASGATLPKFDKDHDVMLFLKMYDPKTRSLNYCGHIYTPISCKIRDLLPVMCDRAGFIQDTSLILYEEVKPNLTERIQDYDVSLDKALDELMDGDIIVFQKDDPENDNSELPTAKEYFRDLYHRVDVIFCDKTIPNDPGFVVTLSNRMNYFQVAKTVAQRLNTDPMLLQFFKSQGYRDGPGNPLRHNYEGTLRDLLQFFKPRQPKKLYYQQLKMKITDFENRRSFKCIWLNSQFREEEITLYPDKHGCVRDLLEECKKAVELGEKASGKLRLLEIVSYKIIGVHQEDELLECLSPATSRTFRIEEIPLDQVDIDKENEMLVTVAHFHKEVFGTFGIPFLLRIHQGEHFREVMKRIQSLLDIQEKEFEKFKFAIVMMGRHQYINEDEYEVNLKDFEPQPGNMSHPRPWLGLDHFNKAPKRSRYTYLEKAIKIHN
UniProt P42224: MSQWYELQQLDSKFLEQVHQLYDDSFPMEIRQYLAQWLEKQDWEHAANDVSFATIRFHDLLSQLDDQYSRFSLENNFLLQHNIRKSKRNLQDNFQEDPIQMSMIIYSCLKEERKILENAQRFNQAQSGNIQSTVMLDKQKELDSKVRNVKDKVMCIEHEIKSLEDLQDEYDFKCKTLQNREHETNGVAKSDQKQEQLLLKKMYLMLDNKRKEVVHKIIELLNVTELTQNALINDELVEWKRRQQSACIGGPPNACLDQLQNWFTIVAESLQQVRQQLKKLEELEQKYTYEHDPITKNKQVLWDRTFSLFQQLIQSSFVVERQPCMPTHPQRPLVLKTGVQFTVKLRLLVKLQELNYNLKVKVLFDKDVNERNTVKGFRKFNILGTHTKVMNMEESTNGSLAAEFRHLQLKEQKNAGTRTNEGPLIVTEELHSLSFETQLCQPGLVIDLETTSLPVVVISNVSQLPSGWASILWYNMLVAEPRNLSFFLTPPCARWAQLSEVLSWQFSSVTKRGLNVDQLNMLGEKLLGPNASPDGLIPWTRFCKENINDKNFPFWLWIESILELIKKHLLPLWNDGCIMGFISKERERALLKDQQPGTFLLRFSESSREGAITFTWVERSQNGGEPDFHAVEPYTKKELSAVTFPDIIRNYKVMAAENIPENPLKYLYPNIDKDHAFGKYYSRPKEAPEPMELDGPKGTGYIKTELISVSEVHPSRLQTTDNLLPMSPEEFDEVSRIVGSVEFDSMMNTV
UniProt P52630: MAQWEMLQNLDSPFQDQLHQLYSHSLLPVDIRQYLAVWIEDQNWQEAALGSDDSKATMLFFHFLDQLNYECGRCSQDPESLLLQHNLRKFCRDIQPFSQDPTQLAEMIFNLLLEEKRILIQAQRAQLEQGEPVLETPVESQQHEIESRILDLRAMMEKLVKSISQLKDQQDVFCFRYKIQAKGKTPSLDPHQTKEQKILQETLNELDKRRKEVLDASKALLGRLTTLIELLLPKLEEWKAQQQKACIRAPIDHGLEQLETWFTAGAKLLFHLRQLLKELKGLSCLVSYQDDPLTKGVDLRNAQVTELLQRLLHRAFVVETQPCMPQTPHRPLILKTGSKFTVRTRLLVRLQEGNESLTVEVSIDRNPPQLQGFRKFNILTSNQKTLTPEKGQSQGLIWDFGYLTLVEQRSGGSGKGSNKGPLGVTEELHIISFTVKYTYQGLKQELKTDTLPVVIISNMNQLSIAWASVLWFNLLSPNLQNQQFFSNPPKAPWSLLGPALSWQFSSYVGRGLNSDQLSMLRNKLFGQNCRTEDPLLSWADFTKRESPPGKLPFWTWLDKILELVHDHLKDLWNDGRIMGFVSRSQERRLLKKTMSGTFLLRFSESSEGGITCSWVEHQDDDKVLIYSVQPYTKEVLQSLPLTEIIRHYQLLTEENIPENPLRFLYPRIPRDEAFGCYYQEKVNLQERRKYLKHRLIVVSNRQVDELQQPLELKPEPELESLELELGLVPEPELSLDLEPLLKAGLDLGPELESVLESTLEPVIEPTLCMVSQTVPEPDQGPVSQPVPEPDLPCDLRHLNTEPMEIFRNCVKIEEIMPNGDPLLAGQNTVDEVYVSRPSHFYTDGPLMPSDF
UniProt P40189, residues 23-918: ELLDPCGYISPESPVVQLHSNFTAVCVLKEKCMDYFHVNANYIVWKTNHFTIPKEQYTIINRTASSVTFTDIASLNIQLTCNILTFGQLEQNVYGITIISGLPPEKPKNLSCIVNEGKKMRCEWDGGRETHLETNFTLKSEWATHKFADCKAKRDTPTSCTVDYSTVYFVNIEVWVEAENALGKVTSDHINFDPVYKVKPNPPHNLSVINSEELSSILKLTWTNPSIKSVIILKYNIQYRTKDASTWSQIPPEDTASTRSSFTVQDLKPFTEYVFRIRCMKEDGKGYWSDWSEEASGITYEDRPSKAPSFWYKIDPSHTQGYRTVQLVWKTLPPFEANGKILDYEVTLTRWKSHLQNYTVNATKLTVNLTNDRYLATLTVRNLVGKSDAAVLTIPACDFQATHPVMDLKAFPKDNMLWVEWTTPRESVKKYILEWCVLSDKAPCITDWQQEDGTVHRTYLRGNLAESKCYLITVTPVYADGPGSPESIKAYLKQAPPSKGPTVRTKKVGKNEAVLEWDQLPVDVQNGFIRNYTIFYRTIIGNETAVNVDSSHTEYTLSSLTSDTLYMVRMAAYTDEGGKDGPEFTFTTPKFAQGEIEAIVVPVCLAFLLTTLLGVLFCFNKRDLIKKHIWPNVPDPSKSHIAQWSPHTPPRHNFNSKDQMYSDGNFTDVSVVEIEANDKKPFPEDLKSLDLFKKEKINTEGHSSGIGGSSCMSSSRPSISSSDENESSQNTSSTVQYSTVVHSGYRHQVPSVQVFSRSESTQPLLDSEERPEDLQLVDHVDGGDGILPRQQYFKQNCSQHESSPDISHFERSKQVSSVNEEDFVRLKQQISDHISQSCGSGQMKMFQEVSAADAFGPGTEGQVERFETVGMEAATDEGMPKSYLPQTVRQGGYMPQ

Our source for the binding values is article PMC10695398 (PLOS Pathogens, 2023).

Where two headings read alike, the source gives them in different places. These are yes or no findings as the source states them, for the method shown. For some assays here: In cells and extracts the contact can be indirect. Some results given as binding are weak or reduced against the parent protein; the word gives no strength. For some assays here: Where a sequence is shown, tags or fusion partners need not be part of it.

In the case of “CBD-tagged STAT1, vector-expressed (from UniProt P42224 1-750)”, the binding entry in [1], in [2] and in [3] was “binds” in each case.

For “Flag-tagged TYK2, bacterially produced and purified (from UniProt P29597 1-1187) (enzyme)”, in [4], the binding result is on record as “binds”.

On to “Flag-tagged vIRF-1 deletion variant Δ9 (Δ198–222) (from UniProt F5HF68 1-449)”, for which the binding entry (in [5]; with CBD-tagged TYK2) was “no binding” throughout.

For “Flag-tagged vIRF-1 residues 1–72 (peptide 1–72) (from UniProt F5HF68 1-72) (domain or fragment)”, the binding result (in experiment [6]; in the experiment with USP7) was “binds” throughout.

Regarding “S-tagged TYK2, vector-expressed (from UniProt P29597 1-1187) (enzyme)”, the binding result in [7] is reported as “no binding”; in experiment [1] it was “binds”; in experiment [2], “binds”; in experiment [3] it was “binds”.

“StrepII+Flag (SF)-tagged vIRF-1 (HHV-8 viral interferon regulatory factor 1), wild type (from UniProt F5HF68 1-449)”: the binding entry (with CBD-tagged TYK2; in experiment [6]; with USP7) was “binds” throughout.

As for “endogenous STAT2 of 293T cells (from UniProt P52630 1-851)”, the binding entry in experiment [1], in experiment [2] and in experiment [3] was “binds” each time.

As to “endogenous STAT3 (total STAT3) of 293T cells (from UniProt P40763 1-770)”, the binding entry in [7] is recorded as “binds”; in [1] it was “no binding”; in experiment [2], “no binding”; in experiment [3], “binds”.

For “endogenous STAT3 of TRExBCBL1-RTA (iBCBL-1) PEL cells (from UniProt P40763 1-770)”, in [8], the binding result is reported as “binds”.

Take “endogenous active, tyrosine-phosphorylated STAT3 (pSTAT3) of 293T cells (from UniProt P40763 1-770)”: the binding entry in experiment [3] is listed as “binds”.

For the molecule “gp130 cytokine receptor (signal transducer) in 293T lysates (from UniProt P40189 23-918)”, the binding entry in experiment [9] is “binds”.

B1: StrepII+Flag (SF)-tagged vIRF-2 (protein, UniProt Q2HR71 1-680)
chain: MPRYTESEWLTDFIIDALDSGRFWGVGWLDEQKRIFTVPGRNRRERMPEGFDDFYEAFLEERRRHGLPEIPETETGLGCFGRLLRTANRARQERPFTIYKGKMKLNRWIMTPRPYKGCEGCLVYLTQEPAMKNMLKALFGIYPHDDKHREKALRRSLRKKAQREAARKQAAAVATPTTSSAAEVSSRSQSEDTESSDSENELWVGAQGFVGRDMHSLFFEEPEPSGFGSSGQSSSLLAPDSPRPSTSQVQGPLHVHTPTDLCLPTGGLPSPVIFPHETQGLLAPPAGQSQTPFSPEGPVPSHVSGLDDCLPMVDHIEGCLLDLLSDVGQELPDLGDLGELLCETASPQGPMQSEGGEEGSTESVSVLPATHPLESSAPGASVMGSGQELPDLGDLSELLCETASPQGPMQSEGGEEGSTESVSVLPATHPLESSAPGASVMGSSFQASDNVDDFIDCIPPLCRDDRDVEDQEKADQTFYWYGSDMRPKVLTATQSVAAYLSKKQAIYKVGDKLVPLVVEVYYFGEKVKTHFDLTGGIVICSQVPEASPEHICQTVPPYKCLLPRTAHCSVDANRTLEQTLDRFSMGVVAIGTNMGIFLKGLLEYPAYFVGNASRRRIGKCRPLSHRHEIQQAFDVERHNREPEGSRYASLFLGRRPSPEYDWDHYPVILHIYLAPFYHRD
B1: the binding entry in experiment [10] is given as “no binding”.
